Drawing on the RNAGym collection of RNA variant scans (doi:10.1093/nar/gkz1192), this text covers self-cleavage for 167 variants.

Read counts are not given, so values of variants with three or more changes are uncertain.

B1: CPEB3 Ribozyme (parent)
chain: UAACAGGGGGCCACAGCAGAAGCGUUCACGUCGCAGCCCCUGUCAGAUUCUGGUGAAUCUGCGAAUUCUGCUGUAUAUCUC

The data set covers variants of B1. The experiment in a line: self-cleavage, relative activity (ratio to wild type); higher = more cleavage; in vitro, sequencing. The procedure, abridged: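 After error-prone PCR and barcoding, CPEB3 ribozyme mutant libraries were transcribed with T7 RNA polymerase at 37°C for 5 hours, then given 15 min with DNase I before an EDTA stop, and they cleaved during both steps. Reverse transcription with template switching preceded Illumina sequencing. Relative activity divides a variant's cleaved/total read fraction by the unmutated ribozyme's. At least 5 reads were required per variant, and three batches were averaged.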
On to A28C U41G A47G, for which the self-cleavage was 0.19. The value for U26C U51A U58C was 0.19. Regarding A28G C37U A45G A47G A56G G63A, the self-cleavage stood at 0.06.

On to A28G U41C A56G U67C, for which the self-cleavage came out at 0.07. A28G C62A U66C U80C: the self-cleavage was determined as 0.13. For U26G U54A A77U U78C the value was 0.25; for U26C U66G A75G, 0.07. For A28C G36U U60A the value was 0.34; for A28G A35U A47G U66C C71A U72A, 0.05. The value for A28U U31C A57G U67C was 0.14. For the variant U26C U54C U72A, the self-cleavage is 0.19. For A28G U41A U69A U76C the value was 0.14; for A28C U31C A64U U66C U74C, 0.2; for C27G U48C U67A, 0.08. For A28G A35U A57G, the self-cleavage worked out at 0.1. For U26G C38U U49A U54C the value was 0.06; for U26C U43C A57G U72C, 0.55. For U26C U67C U72A the value was 0.1; for A28G A45C U69C A75G, 0.09. The value for U26C U43A U60C was 0.21. For A28U C40U A65G, the self-cleavage was 0.46. The value for A28G U31C G42A A45G U51C U66A U72A was 0.05; that for U26C U51C A77C was 0.42; that for A28G U41C U43A C44U was 0.15. The value for U26G U78C U80C was 0.37; that for C29A U43C U72C C79A was 0.42. For A28G U31C U48G, the self-cleavage came to 0.6. For A28G U51A U66A the value was 0.17; for A28U A35G A45C U54A A64G U78A, 0.26. The value for A28G A47G U49A U60A U72C was 0.06; that for A28C U43C A65C was 0.31.

In the case of A28G G36C A45G U67C, the self-cleavage came out at 0.05. For A28U U31G A64G the value was 0.18.

As for U26G A28G A35U U60C, the self-cleavage came to 0.14. The value for C27U A64U U72C was 0.1; that for U26G U31C G53A A57G was 0.06.

For A28U C40U U49A, the self-cleavage stood at 0.1.

Regarding A28U U43C A47G U51A A57G U72A, the self-cleavage stood at 0.2. The value for A28G U48A U54C C81U was 0.09; that for A28U A56U U58A U60C was 0.11; that for A28G U43A U74G U76A was 1.3. For A28G U51A A56U A65G U66C, the self-cleavage was found to be 0.04.

Regarding U26G U49C C50A U78C, the self-cleavage turned out to be 0.26. A28G G33A U51C U66C: the self-cleavage was determined as 0.11. For U26C U43C U76C U78C the value was 0.63; for C27U U41C G42U A56G, 0.2; for A28G C32A U49C A56U U66C, 0.05. Regarding A28G A35U U67C, the self-cleavage was 0.33. The value for A28G A56U C71A was 0.37. For the variant A28G U41A A45C U48C A56G, the self-cleavage was found to be 0.19. The value for A28G U58C U66C was 0.2; that for U26C U51A G73U U76C U80A was 0.97; that for A28U U49C U51C G73A U76C was 0.63. For U26C U49C U66C the value was 0.41; for A28C A35G A47G, 0.83.

Regarding C27U G33A A35U G53U U69A A77U, the self-cleavage came to 0.06. For A28U U43C A75G the value was 0.56; for U26G U60C U80C, 0.34. The value for U26G A47U U54C U60C U78C was 0.08. The value for A28G U43A U51C was 0.8; that for A28U U69A U72A was 0.2. Turning to A28G C32A G63A A65G U76C, the self-cleavage worked out at 0.11. For C27U A57G U80C the value was 0.41. For A28G U41A U43C U49C the value was 0.09; for C27A U31C C37G A65G C68U, 0.12; for A28G A45U A65G A77U U80C, 0.26. For A28G C39U A45U G46A A64G the value was 0.19.

Consider A28U G33C A47U, for which the self-cleavage was found to be 0.1. The value for A28U A35U U69A was 0.2; that for A28G U41A U51A U60A A64U was 0.11; that for A28G C39A U54C U80C was 0.48. The value for A28G U41A A57U U69A was 0.18. The value for A28C U43G U49C A56U was 0.14; that for A28G U43C U51A G55C A56G was 0.22. On to A28G A45G G55U C71U, for which the self-cleavage stood at 0.26. Regarding U26C U51C G52U A56G, the self-cleavage was 0.3. In the case of A28G U49A U69C U72C, the self-cleavage was 0.21.

Turning to A28G G55U U69C, the self-cleavage is 0.15.

As for A28G A35G U58C, the self-cleavage came out at 0.58. The value for A28G A35G A45U A57G was 0.12; that for A28G C32U U41C was 0.43. For A28G A35G A64G the value was 0.95. The value for A28G C32U U49C A65G was 0.14; that for A28G U67C A75G was 0.32. Take A28G U54G G55U: the self-cleavage was determined as 0.21. The value for C27A A45U U48C was 0.18; that for A28U U58C A77U was 0.36; that for C29A A35G C37U was 1.1. The value for A28U A35U U41C U58G was 0.1; that for A28G C40G A65G U78C was 0.05; that for C29A U41G A57G U60C was 0.11. The value for A28U A56G U72C U74C was 0.87; that for A28G G36U C40U A45C U80C was 0.1.

Regarding C29A A35G U51C U80A, the self-cleavage was found to be 1.2. The value for A28G U31C A47G A75U U80C was 0.42; that for U26G G33A A75G was 0.07; that for A28G C29U U78C was 0.15. The value for C27U U60C A77U U78C was 0.07; that for U26G A35G U51A was 0.43. The value for A28G U48C G52C U54C was 0.2; that for A28C U49C U58A was 0.36; that for A28U A47G U78C was 0.74. In the case of A28G U31C U49C U76A, the self-cleavage came to 0.1. For A28G A47U A57G A64G U67C the value was 0.5; for C27U U41A U69C A77G, 0.13; for C27U C40U A65G, 0.08. For A28G A35U U41C A47U C59G A64G U69A the value was 0.04; for A28G C38U U60C U69C G70A, 0.2; for U26C U49A U58A, 0.11.

A28U G33A U51A A64G U72C: the self-cleavage came to 0.07.

As to A28G G63U U72A, the self-cleavage amounted to 0.28. For C27U U31A G33A A35G U60C the value was 0.17; for C29A U31C U80G, 0.23. For the variant C29A A35U U43C, the self-cleavage is 0.13. The value for A28G A35C A65G U67C U69C was 0.1; that for A28U A56U U58A U67A U80C was 0.1; that for A28C G36C A45U G61C U78C was 0.14. For A28U A47G U58A G70A the value was 0.05; for A28U G33C A64G C68U, 0.1. The value for A28G C37U U67C U72A was 0.08; that for A28G U78A U80C was 0.63. In the case of A28U G33A U51C, the self-cleavage came out at 0.53. For A28G C34U U69A the value was 0.13. The value for A28U U49C U51A was 0.39; that for U26C U67C U72C A77G was 0.11. The value for A28U U31C C44U U51A U76C was 0.09; that for A28U U60C U80C was 0.38.

U26C U51A U80A: the self-cleavage was 0.46. Turning to A28U C29U U66C U69C, the self-cleavage worked out at 0.07. For the variant A28G U31C A35G C37U G52A A57G, the self-cleavage was determined as 0.88. For A28G A56G A57U U72G the value was 0.1.

Regarding A28G U48C U58C, the self-cleavage came out at 0.13. For A28U U54A A57U A64G the value was 0.3; for A28G G63U C79G, 0.86.

Regarding A28U A35U A77G, the self-cleavage was 0.36. For A28G A64G U78C the value was 0.36; for U26C U51A A64G U80C, 0.22; for A28G A35G U41C A57U U67A, 0.21. For the variant C29A G52A U58A A64C U76C U78A, the self-cleavage was found to be 0.03. For A28G U41C A64U the value was 0.14.

Take A28U U31A A45G U48C U69C: the self-cleavage stood at 0.1. Turning to A28G A45G A64C U76C, the self-cleavage is 0.12. For U26G U58C U60G the value was 0.11; for A28G G36C A45G U54A U60A, 0.05. The value for C27U A28G U43A U48C U49C was 0.24; that for A28G C32U A57G A77U was 0.44. Consider C27U U49C U69A, for which the self-cleavage was 0.13. For A28G U51C A65U the value was 0.13; for A28G A45U A65G U74C, 0.2; for A28U U31C A35U, 0.24. The value for U26C U43C U48C was 0.14; that for A28G A45G U51C A65U was 0.12. Regarding A28G G46U A77G U78G, the self-cleavage was 0.04.

C27U A28U C29G U48C U69C U74A: the self-cleavage was 0.08. Turning to A28G A35U U43A, the self-cleavage is 0.41. The value for A28U U43A U66C was 0.41.

Regarding A28G A56G A64G U72C, the self-cleavage was 0.48.

In the case of A28G U48C U51C G52A U54C U72A, the self-cleavage turned out to be 0.23. For A28U U60C A75G the value was 0.24; for A28G U41C U43A U67A U80A, 0.13; for A28U G63A U66A U69A, 0.22.

For the variant C27U A57G U72C C79U, the self-cleavage was found to be 0.47. Consider A28U U31C A45G U67C, for which the self-cleavage was found to be 0.11.

Regarding A28G U58C U69A, the self-cleavage was determined as 0.17.

As for A28G G33A U72C, the self-cleavage was found to be 0.16. The value for C27U A56G U60C U69A U74C A75G was 0.11; that for C27U A35C U66C was 0.17.
